Test results: PubChem BioAssay AID485294 (National Center for Advancing Translational Sciences (NCATS), 2010)
Out of some 370,000 compounds screened, about 150 (0.041%) were called active. Inconclusive results, whose numbers are uncertain, are shown with a selection of clear calls. The call rests on the fitted dose curve; in most records, active means well fitted inhibition curve with a large enough effect; inconclusive means small, poorly fitted or top-dose-only effect; inactive means flat fitted curve, though single readings scatter. Potencies of inconclusive entries are left out as doubtful fits.

Molecular target: Beta-lactamase (Escherichia coli (strain K12)) (UniProt P00811)
Chain of UniProt P00811 (P00811 whole entry, looked up): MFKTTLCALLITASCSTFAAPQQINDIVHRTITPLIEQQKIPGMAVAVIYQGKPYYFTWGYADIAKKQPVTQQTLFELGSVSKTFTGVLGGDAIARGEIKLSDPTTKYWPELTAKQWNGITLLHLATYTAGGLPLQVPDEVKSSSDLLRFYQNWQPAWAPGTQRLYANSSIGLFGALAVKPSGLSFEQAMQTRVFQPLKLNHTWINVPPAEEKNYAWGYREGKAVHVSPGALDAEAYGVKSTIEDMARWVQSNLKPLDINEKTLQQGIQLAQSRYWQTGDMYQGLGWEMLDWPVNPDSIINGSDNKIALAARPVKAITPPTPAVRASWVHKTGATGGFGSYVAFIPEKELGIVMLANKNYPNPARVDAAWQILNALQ
Assay: qHTS Inhibitors of AmpC Beta-Lactamase (assay with detergent); further: nearly all actives have a fitted effect of over 25% in size;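 on activity change, negative = inhibition: 0% = no-compound wells and -100% = no-enzyme wells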
Conditions: AmpC hydrolysis of nitrocefin, absorbance 480 nm, 0.01% Triton; activity change, negative = inhibition: at 114 µM (top of the series)
Summary of the method: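 20 mM phosphate pH 7.0 + 0.01% (detergent screen) or 0.0001% Triton X-100; 5.3 nM AmpC reagent; cpd preinc 15 min RT; nitrocefin (800 uM stock) to start; A480 q20 s × 4 min; Activity was normalised to no-enzyme and no-compound control wells.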
Potency means the concentration at half of the fitted maximal effect; tags describe the fitted curve by direction and shape.

| SMILES | activity change, negative = inhibition | Potency |
| --- | --- | --- |
| CCCn1nc(C(=O)NC2CC2)c2ccccc2c1=O | inactive: 6.8% | – |
| Cc1cc(C)c(NC(=O)Cn2nnc(C(=O)Nc3ccc(F)cc3F)c2N)c(C)c1 | – | inactive |
| CCOC(=O)/C=C1\SCC(=O)N1CC(=O)Nc1ccccc1OC(F)F | – | inconclusive [inhibitor, full curve] |
| CN1CCN(C(CNC(=O)Nc2ccc(Cl)cc2)c2ccc(F)cc2)CC1 (stereo unspecified) | – | inconclusive [inhibitor, single point] |
| Cc1nc2ccc(S(=O)(=O)Nc3ccc(-c4nc5cccnc5s4)cc3)cc2s1 | – | inconclusive [inhibitor, full curve, poor fit] |
| CCOP(=O)(OCC)c1nc(-c2cccc3ccccc23)oc1NCc1ccccc1 | inactive: 0.701% | – |
| Brc1ccccc1-n1nnc(-c2cccnc2)n1 | inactive: 5.36% | – |
| COc1ccccc1C1C(C(=O)c2cc3ccccc3o2)=C(O)C(=O)N1CCN1CCOCC1 (stereo unspecified) | – | inconclusive [inhibitor, partial curve, poor fit] |
| O=C1C(c2ccccc2)SC(=Nc2ccccc2)N1S(=O)(=O)c1ccccc1 (stereo unspecified) | inactive: -7.97% | – |
| O=C(O)c1ccc(N2C(=O)c3cccnc3C2=O)cc1 | – | inconclusive [inhibitor, partial curve, poor fit] |
| CCOC(=O)CSc1nnc(Cn2c(=O)sc3ccccc32)n1C | – | inconclusive [inhibitor, full curve, poor fit] |
| O=C(CNS(=O)(=O)c1ccc([N+](=O)[O-])cc1)N/N=C\c1ccc(O)cc1 | – | inconclusive [inhibitor, full curve, poor fit] |
| CCC(C)Sc1nnc(Cc2cc(=O)[nH]c(=O)[nH]2)n1-c1ccc(F)cc1 (stereo unspecified) | – | inconclusive [inhibitor, partial curve, poor fit] |
| O=C(NCc1ccc2c(c1)OCO2)c1ccc2c(c1)C(=O)N(Cc1cccnc1)C2=O | inactive: -3.47% | – |
| CC(C)(C)C(=O)Nc1c2c(nc3c1CCC3)CCCC2 | – | inconclusive [inhibitor, full curve, poor fit] |
| Cc1ccccc1-n1nnnc1SCC(N)=O | – | inconclusive [inhibitor, single point] |
| Cc1ccc(C(=O)N2N=C(c3ccc(Br)cc3)CC2c2ccccc2O)cc1 (stereo unspecified) | inactive: -11.3% | – |
| CCn1c2ccccc2c2nnc(SCC(=O)OCN3C(=O)c4ccccc4C3=O)nc21 | – | inconclusive [inhibitor, full curve, poor fit] |
| CC(C)(C)NC(=O)C1CCN(S(=O)(=O)c2ccc(Br)cc2)CC1 | – | inconclusive [inhibitor, single point] |
| Cc1ccc(S(=O)(=O)N(C)C)cc1NC(=O)c1cc(C(C)(C)C)nn1Cc1ccccc1 | inactive: 4.44% | – |
| O=C(/C=C/c1ccc(O)c(O)c1)O[C@H](Cc1ccc(O)c(O)c1)C(=O)O | – | inconclusive [inhibitor, partial curve] |
| N#Cc1sc2nc3c(c(-c4cccnc4)c2c1N)CCC3 | – | inconclusive [inhibitor, full curve, poor fit] |
| CCOC(=O)c1ccc(NC(=O)CC2C(=O)N(c3ccc(C)cc3)C(=O)N2C2CCCC2)cc1 (stereo unspecified) | inactive: -0.277% | – |
| Cc1onc(-c2c(Cl)cccc2Cl)c1C(=O)NCCCN1CCOCC1 | – | inconclusive [inhibitor, full curve, poor fit] |

| SMILES | activity change, negative = inhibition | Potency |
| --- | --- | --- |
| O=C(CCCc1ccccc1)NCc1cn2ccsc2n1 | – | inconclusive [inhibitor, full curve, poor fit] |
| N#Cc1ccccc1NC(=O)COC(=O)c1ccc(S(=O)(=O)N2CCCC2)cc1 | – | inconclusive [inhibitor, full curve, poor fit] |
| Clc1ccc(COc2ccccn2)c(Cl)c1 | – | inconclusive [inhibitor, full curve, poor fit] |
| Cc1cc(C)c(C)c(S(=O)(=O)NCCCN2CCCC2=O)c1C | inactive: 3.31% | – |
| CC1C/C(=N/O)C(C)CN1 (stereo unspecified) | inactive: -14.2% | – |
| Cc1ccc(-c2csc(NC(=O)CSc3ncn(-c4ccccc4)n3)n2)cc1 | – | inconclusive [inhibitor, full curve] |
| COc1cc(-c2noc(C)c2C#Cc2ccc(N)cc2)cc(OC)c1OC | – | inconclusive [inhibitor, full curve] |
| CN(c1ccccc1)S(=O)(=O)c1ccc2c(c1)oc(=O)n2C | – | inconclusive [inhibitor, full curve, poor fit] |
| Cc1nnc(SC(C)C(=O)Nc2ccc3ccccc3c2)[nH]c1=O (stereo unspecified) | inactive: 3.38% | – |
| O=C(Nc1nc(COc2ccccc2)cs1)C12CC3CC(CC(C3)C1)C2 | – | inconclusive [inhibitor, partial curve, poor fit] |
| Cn1c(=O)c2c(-c3ccc(C(C)(C)C)cc3)n(CC3CCCO3)cc2n(C)c1=O (stereo unspecified) | – | inconclusive [inhibitor, full curve, poor fit] |
| CCO[C@@H]1c2c(ccc3ccc(=O)oc23)OC(C)(C)[C@@H]1O | inactive: 1.28% | – |
| CCc1ccc(OCCCC(=O)Nc2ccc(N3CCCCC3)cc2)cc1 | inactive: 1.79% | – |
| CCn1cc(C(=O)O)c(=O)c2cc(F)c(N3CCN(C(=S)NC(=O)c4ccccc4)CC3)cc21 | inactive: 3.38% | – |
| O=C(O)c1ccccc1-c1nc2ccccc2c(=O)n1O | – | inconclusive [inhibitor, full curve] |
| O=C(CNC(=O)c1ccccc1F)OCc1cc(=O)n2nc(C3CC3)sc2n1 | inactive: -6.88% | – |
| COc1cc(OC)cc(C(=O)Nc2ccc3c(c2)OCCO3)c1 | – | inconclusive [inhibitor, full curve, poor fit] |
| Cc1cccc(NC(=O)CN(C)S(=O)(=O)c2ccc(Cl)cc2)n1 | – | inconclusive [inhibitor, partial curve, poor fit] |
| COc1cccc(C(=O)Oc2c(CN3CCOCC3)cc(Cl)c3cccnc23)c1 | inactive: -4.93% | – |
| Cc1c(C#N)c(N=CN(C)C)c(C(=O)c2ccc(Br)cc2)n1-c1ccccc1 | – | inconclusive [inhibitor, full curve, poor fit] |
| Cc1ccc(C(=O)OCC(=O)N2CCOCC2)c(C)c1 | – | inconclusive [inhibitor, full curve, poor fit] |
| Clc1nnc(Cl)c2c1ncn2Cc1ccccc1 | – | inconclusive [inhibitor, partial curve] |
| COC(=O)c1cc(COC(=O)c2cccnc2SC)oc1C | – | inconclusive [inhibitor, full curve, poor fit] |
| O=c1c(Cc2ccccc2)c(O)c2cccc3c4c(n1c23)CCCC4 | inactive: -0.3% | – |

| SMILES | activity change, negative = inhibition | Potency |
| --- | --- | --- |
| O=C(O)C1CCC(NSc2ccccc2[N+](=O)[O-])CC1 (stereo unspecified) | – | inconclusive [inhibitor, partial curve] |
| COCCN1CCN(Cc2cn(C)nc2-c2cccc(Cl)c2)CC1 | inactive: -1.68% | – |
| CN(Cc1nc(-c2cccs2)no1)CC(O)c1ccccc1 (stereo unspecified) | inactive: -5.21% | – |
| CN1C(=O)S/C(=C/c2ccc(OCc3cccc(C(=O)O)c3)cc2)C1=O | inactive: -15.5% | – |
| Cc1nc(C)n(CC(=O)N2CCCC(C(=O)c3cccc4ccccc34)C2)n1 (stereo unspecified) | inactive: -4.31% | – |
| ClC(/C=N/n1cnnc1)=C/c1ccccc1 | inactive: 6.32% | – |
| COc1ccc(Nc2nc3ccccc3nc2NS(=O)(=O)c2ccc(Cl)cc2)cc1OC | inactive: -2.43% | – |
| Cn1c(=O)n(C)c2cc(NC(=O)c3cc4ccccc4o3)ccc21 | – | inconclusive [inhibitor, single point] |
| Cc1cccc(NC(=O)CSc2nc3ccccc3c3nc(CCc4c(C)n[nH]c4C)nn23)c1 | – | inconclusive [inhibitor, partial curve, poor fit] |
| Cn1c(=O)[nH]c(=O)c2c1nc(SCCN1CCOCC1)n2CCCc1ccccc1 | – | inconclusive [inhibitor, partial curve] |
| NS(=O)(=O)c1ccc(CNC(=O)c2ccc(Cl)c(S(=O)(=O)NCc3ccccc3)c2)cc1 | – | inconclusive [inhibitor, full curve, poor fit] |
| COc1ccc(-c2nnc(SCc3nc4ccccc4c(=O)[nH]3)o2)cc1 | inactive: 8.21% | – |
| Cc1[nH]c2ccccc2c1C(=O)C(=O)NC1CC(=O)N(c2ccc(F)cc2)C1 (stereo unspecified) | inactive: -5.44% | – |
| CCN(CC)CCNC(=O)Cn1c(-c2ccccn2)nc2ccccc21 | – | inconclusive [inhibitor, partial curve, poor fit] |
| Cc1ccc(NC(=O)CCN2C(=O)C3CCCCC3C2=O)c(O)c1 (stereo unspecified) | – | inconclusive [inhibitor, full curve, poor fit] |
| Cc1ccc(C(=O)C(C)OC(=O)Cc2c[nH]c3ccccc23)cc1 (stereo unspecified) | – | inconclusive [inhibitor, full curve, poor fit] |
| O=C(c1cc(-c2cccc(O)c2)on1)N1CCN(C(c2ccccc2)c2ccccc2)CC1 | – | inconclusive [inhibitor, full curve, poor fit] |
| COc1ccccc1-c1nc(S(=O)(=O)c2ccccc2)c(N2CCC(C)CC2)o1 | inactive: 29.7% | – |
| Cc1ccc(N)c(N)c1 | inactive: -6.19% | – |
| c1nc(NCCN2CCOCC2)c2sc3nc(N4CCOCC4)c4c(c3c2n1)CCC4 | – | inconclusive [inhibitor, full curve, poor fit] |
| CC1CCC(NC(=O)Cn2c3c(c(-c4ccccc4Cl)cc2=O)CCC3)CC1 (stereo unspecified) | – | inconclusive [inhibitor, full curve, poor fit] |
| O=C(COc1ncnc2sccc12)NC1CCS(=O)(=O)C1 (stereo unspecified) | inactive: -2.88% | – |
| Cc1c(C(=O)NCC(c2ccco2)N(C)C)oc2c(Cl)cccc12 (stereo unspecified) | – | inconclusive [inhibitor, full curve, poor fit] |
